Laboratory results from the antibiotic and cytotoxicity screens of Wong et al. (2023).
Some of the results follow.

Tests used:
HSkMC = human skeletal muscle cells; test: cytotoxicity call (relative viability < 0.9); settings: 10 µM
HepG2 = test: cytotoxicity call (relative viability < 0.9); settings: 10 µM
S. aureus RN4220 = test: growth inhibition call (relative growth <= 0.2); settings: 50 µM

O=C(C[C@@H]1CC[C@@H]2[C@H](COC[C@H](O)CN2C(=O)Nc2ccc(Cl)cc2)O1)NC1Cc2ccccc2C1
inactive: cytotoxicity call (HSkMC) | cytotoxicity call (HepG2) | growth inhibition call (S. aureus RN4220)

C[C@@H]1CN([C@@H](C)CO)C(=O)c2cc(NC(=O)Cn3cnnn3)ccc2O[C@H]1CN(C)C(=O)NC1CCCCC1
inactive: cytotoxicity call (HSkMC) | cytotoxicity call (HepG2) | growth inhibition call (S. aureus RN4220)

C=CCOC(=O)[C@@H]1[C@H]2C(=O)O[C@H](c3ccccc3)[C@H](c3ccccc3)N2[C@H](c2ccc(OCCOC(=O)[C@H]3C[C@H]4C(=O)N[C@@H](CCCCNC(C)=O)C(=O)N4[C@H]3c3cccc(OCCO)c3)cc2)[C@@]12C(=O)Nc1ccc(I)cc12
inactive: cytotoxicity call (HSkMC) | cytotoxicity call (HepG2) | growth inhibition call (S. aureus RN4220)

COc1ccc(CN(C)C[C@H]2OCCCC[C@@H](C)Oc3ccc(NS(=O)(=O)c4ccc(C)cc4)cc3C(=O)N([C@@H](C)CO)C[C@H]2C)cc1
inactive: cytotoxicity call (HSkMC) | cytotoxicity call (HepG2) | growth inhibition call (S. aureus RN4220)

COc1ccc(NC(=O)Nc2ccc3c(c2)C(=O)N([C@H](C)CO)C[C@H](C)[C@H](CN(C)S(=O)(=O)c2ccc(Cl)cc2)OCCCC[C@H](C)O3)cc1
inactive: cytotoxicity call (HSkMC) | cytotoxicity call (HepG2) | growth inhibition call (S. aureus RN4220)

COc1ccc(S(=O)(=O)Nc2ccc3c(c2)C(=O)N([C@H](C)CO)C[C@H](C)[C@@H](CN(C)S(=O)(=O)c2ccc(C)cc2)O3)cc1
inactive: cytotoxicity call (HSkMC) | cytotoxicity call (HepG2) | growth inhibition call (S. aureus RN4220)

C[C@@H]1CN([C@H](C)CO)C(=O)c2c(c3ccccc3n2C)-c2ccccc2CO[C@H]1CN(C)Cc1ccc(F)cc1
inactive: cytotoxicity call (HSkMC) | cytotoxicity call (HepG2) | growth inhibition call (S. aureus RN4220)

Cc1ccc(S(=O)(=O)Nc2ccc3c(c2)CC(=O)N([C@@H](C)CO)C[C@@H](C)[C@@H](CN(C)C(=O)NC(C)C)O3)cc1
inactive: cytotoxicity call (HSkMC) | cytotoxicity call (HepG2) | growth inhibition call (S. aureus RN4220)
